Laboratory results as given in PubChem BioAssay AID1458 (National Center for Advancing Translational Sciences (NCATS), 2008).
The whole screen tested about 210,000 compounds, of which about 5,900 (2.8%) were called active. Inconclusive means that the source gave no clear call. Such entries were picked first, then a sample of the others. The call rests on the fitted dose curve; in most records, active means well fitted activation curve with a large enough effect; inconclusive means small, poorly fitted or top-dose-only effect; inactive means no such curve, though single readings can be large or run the other way. Potencies of inconclusive entries are doubtful fits and often do not repeat.

Experiment: qHTS Assay for Enhancers of SMN2 Splice Variant Expression; further: nearly all actives have a fitted effect of over 55% in size; on activity change, positive = activation: % of control where 0% means no effect
Settings: HEK293 SMN2-luciferase splicing reporter, luminescence, 30-36 h; activity change, positive = activation: at 46.1 µM (top of the series)
Outline: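 HEK293 cells carry an SMN2 […]–luciferase reporter in which exon 7 inclusion puts luciferase in frame. Cells were plated 10-12 h before compound addition, then incubated 30-36 h at 37C. ONE-Glo luminescence was read; sodium butyrate at 4.5 mM final served as control.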
Potency means the concentration at half of the fitted maximal effect; tags describe the fitted curve by direction and shape.

| Structure (SMILES) | Potency | activity change, positive = activation |
| --- | --- | --- |
| COc1cc(-c2nc3ccc(C)cn3c2Nc2ccc3c(c2)OCCO3)ccc1O | inconclusive: 11.2 µM [activator, partial curve, poor fit] | – |
| CCOC(=O)c1ccc(NC(=O)/C=C/c2cccs2)cc1 | inconclusive: 12.6 µM [activator, partial curve, poor fit] | – |
| CCc1cccc(NC(=O)Cn2cccc2)c1 | inactive | – |
| COc1cc(C(=O)Nc2cccc(-c3nncn3C)c2)cc(OC)c1OC | inconclusive: 0.0178 µM [activator, full curve, poor fit] | – |
| CC(C)(C)C(=O)Nc1ccc(-c2nc3ccc(NC(=O)C(C)(C)C)cc3[nH]2)cc1 | inconclusive: 25.1 µM [activator, partial curve, poor fit] | – |
| CCN(CC)CC(=O)Nc1ccc(-c2nc3cc(NC(=O)CN(CC)CC)ccc3o2)cc1 | inconclusive: 0.0071 µM [activator, full curve, poor fit] | – |
| COc1ccc2cc3cc(C(=O)NCCN4CCc5ccccc5C4)sc3nc2c1 | inactive | – |
| CC(=O)Nc1ccc(S(=O)(=O)NC2(C(F)(F)F)C(=O)Nc3c2c(=O)[nH]c(=O)n3-c2cccc(Cl)c2)cc1 (stereo not given) | inactive | – |
| Cc1ccc(OCc2nc(-c3ccccc3)no2)c(C)c1 | active: 10 µM | – |
| COc1ccc(-c2cc(C(=O)Nc3cc(S(=O)(=O)N4CCOCC4)ccc3N3CCOCC3)c3ccccc3n2)cc1 | inactive | – |
| Cc1oc(-c2ccc(Cl)cc2)nc1CN1CCCC(C(=O)NCCc2ccc(Cl)cc2)C1 (stereo not given) | inactive | – |
| Cc1cccc(NS(=O)(=O)c2cc([N+](=O)[O-])ccc2C)n1 | inconclusive: 5.62 µM [activator, single point] | – |
| COc1ccc2oc(C(=O)NCCC(C)C)c(C)c2c1 | active: 11.2 µM | – |
| O=C(N/N=C/c1ccc(Br)o1)c1cncc(Br)c1 | inconclusive: 0.126 µM [activator, full curve, poor fit] | – |
| COc1ccccc1-c1nc2n(n1)C(c1ccccc1Cl)C(C(=O)Nc1cccnc1)=C(C)N2 (stereo not given) | inactive | – |
| COC(=O)/C(=C/c1ccco1)NC(=O)c1ccco1 | – | inconclusive: 32.8% [activator] |
| CCOC(=O)c1c(C)[nH]c(C=C2C(=O)CCCC2=O)c1O | inconclusive: 11.2 µM [activator, single point] | – |
| N=C1C(c2nc3ccccc3s2)=C(O)CN1C1CCCCC1 | inconclusive: 35.5 µM [activator, single point] | – |
| CCOC(=O)Nc1cccc(OCC(=O)Nc2ccccc2OCC)c1 | inconclusive: 6.31 µM [activator, single point] | – |
| COc1ccc(C2NC(=O)c3sc(=S)n(-c4ccccc4)c3N2)cc1 (stereo not given) | inconclusive: 6.31 µM [activator, single point] | – |
| CCCSc1nsc(NC(=O)c2cccnc2OCC)n1 | inactive | – |
| O=C(Nc1ccccc1)NC1CC2CCC(C1)N2Cc1nnnn1Cc1ccc2c(c1)OCO2 (stereo not given) | inconclusive: 0.0063 µM [activator, full curve, poor fit] | – |
| Cn1ncc2c1ncn1nc(CCc3ccccc3)nc21 | inconclusive: 17.8 µM [activator, partial curve, poor fit] | – |
| O=C(Nc1nnc(SCc2ccccc2)s1)c1cccs1 | inconclusive: 22.4 µM [activator, partial curve, poor fit] | – |
| Cc1nn(C)cc1/C=C/C(=O)c1cccs1 | inconclusive: 25.1 µM [activator, single point] | – |

| Structure (SMILES) | Potency | activity change, positive = activation |
| --- | --- | --- |
| COc1cc(/C=C/c2nc(C#N)c(N3CCN(C)CC3)o2)cc(OC)c1OC | inactive | – |
| O=C(Nc1cc(=O)[nH]c(=O)[nH]1)c1cccc(Br)c1 | inconclusive: 11.2 µM [activator, single point] | – |
| c1ccc(-c2noc(-c3ccc4c(c3)OCO4)n2)cc1 | active: 5.01 µM | – |
| COc1ccc(/C=N/Nc2cc(C)nc(-n3nc(C)cc3C)n2)cc1 | inactive | – |
| CC(C)c1nc(N2CCCC2)c(C#N)c2c1CCCC2 | inconclusive: 4.47 µM [activator, partial curve, poor fit] | – |
| CC1(C)CC(=O)C2=C(C1)N(c1cccc(Cl)c1)C(=O)NC2(C(F)(F)F)C(F)(F)F | inactive | – |
| COc1cc(C(=O)Nc2ccc(NC(=O)c3ccco3)nc2)cc(OC)c1OC | inactive | – |
| C[C@]12CCC3c4ccc(O)cc4CCC3[C@@H]1CCC2=O (stereo not given in full) | inactive | – |
| CC(C)(C)C(=O)NNc1nc(-c2ccccc2)c2cc(Br)ccc2n1 | inactive | – |
| CC(C)(C)c1nc(SCC(=O)Nc2nc3c(s2)CCCC3)c2ccccc2n1 | active: 3.16 µM | – |
| COc1cccc(NC(=S)N(CCc2c(C)[nH]c3ccccc23)Cc2ccco2)c1 | inconclusive: 5.62 µM [activator, single point] | – |
| Cc1ccc2c(C)nc(Nc3nc(CSc4nnnn4-c4ccccc4)cc(=O)[nH]3)nc2c1 | inactive | – |
| O=C(NC(=S)Nc1ccc2ncccc2c1)c1ccccc1 | inconclusive: 2 µM [activator, full curve] | – |
| CC(=O)Nc1ccc(C(=O)OCC(=O)NCc2ccc(Cl)cc2)cc1 | inconclusive: 12.6 µM [activator, single point] | – |
| CCN1CCN(c2ccc(NC(=O)c3ccc4c(c3)[nH]c(=O)n4Cc3ccc(F)cc3)cc2)CC1 | inconclusive: 3.16 µM [activator, single point] | – |
| O=S1(=O)N=C(Nc2nncs2)c2ccccc21 | inactive | – |
| C=CCSc1ncc(-c2ccccc2)cn1 | inactive | – |
| COc1ccccc1NC(=O)CSc1nnnn1Cc1ccccc1 | inconclusive: 0.0126 µM [activator, full curve, poor fit] | – |
| FC(F)(F)Oc1ccc(Nc2nc3ccccc3o2)cc1 | inconclusive: 35.5 µM [activator, single point] | – |
| COc1ccc(NC(=O)c2ccccc2F)cc1Cl | inconclusive: 5.01 µM [activator, full curve] | – |
| O=C1c2ccccc2-c2ccc(N(Cc3ccc(Br)cc3)Cc3ccc(Br)cc3)cc21 | – | inactive: -1.3% [at 9.22 µM] |
| Cc1cc(N2C3CCC2CC(O)(c2ccc(F)cc2)C3)nc(-c2ccccc2)n1 (stereo not given) | inconclusive: 5.62 µM [activator, single point] | – |
| O=c1ccc(-c2ccccc2)nn1Cc1c(F)cccc1Cl | inactive | – |
| Cc1ccc2nc(SCc3cn4cccnc4n3)[nH]c2c1 | inactive | – |
| COc1ccc(C2=CC(c3cccc(OC)c3)n3nnnc3N2)cc1 (stereo not given) | inconclusive: 1.58 µM [activator, partial curve, poor fit] | – |

| Structure (SMILES) | Potency | activity change, positive = activation |
| --- | --- | --- |
| CCCC(=O)Nc1ccc(NC(=O)c2ccccc2Cl)nc1 | inconclusive: 14.1 µM [activator, partial curve, poor fit] | – |
| COc1ccc(CCNC(=O)c2nonc2N)cc1 | inconclusive: 14.1 µM [activator, partial curve] | – |
| CN(C)c1ccc(C(=S)Nc2ccccc2)cc1 | inactive | – |
| O=C(COC(=O)c1c2c(nc3ccccc13)CCCCC2)c1ccc(Cl)s1 | inactive | – |
| COc1ccc(CC(=O)Nc2ccc(-c3nnc(-c4ccc(C)cc4)o3)cc2)cc1 | inconclusive: 14.1 µM [activator, single point] | – |
| COc1ccc(OCCC(=O)NC2=NCCS2)cc1 | inconclusive: 4.47 µM [activator, partial curve, poor fit] | – |
| COc1ccc(-c2nn(-c3ccccc3)cc2/C=N/n2cnnc2)cc1OC | inconclusive: 7.08 µM [activator, full curve, poor fit] | – |
| CCCc1nc(SCC(=O)N2c3ccccc3CC2C)c2c(C)c(C)sc2n1 (stereo not given) | inconclusive: 35.5 µM [activator, single point] | – |
| c1c[nH]cn1 | inactive | – |
| COc1ccc(OC)c(S(=O)(=O)Nc2ccc(O)c3ccccc23)c1 | inactive | – |
| COc1cc(N=Cc2c(O)[nH]c3ccccc23)cc(OC)c1OC | inconclusive: 14.1 µM [activator, partial curve, poor fit] | – |
| CC(=O)Nc1ccc(C#Cc2ccc(NC(C)=O)cc2)cc1 | inconclusive: 35.5 µM [activator, single point] | – |
| CCN(CC)CCOC(=O)c1ccc(NC(=O)/C=C/c2cccs2)cc1 | inactive | – |
| O=C(c1cc2c(=O)n3ccccc3nc2s1)N1CCc2ccccc2C1 | inconclusive: 10 µM [activator, partial curve] | – |
| Cc1csc(NC(=O)Nc2ccc(Cl)cc2)n1 | inactive | – |
| O=C(NCc1ccc(Cl)cc1Cl)C(=O)N1CCCCC1 | inactive | – |
| Cc1nnc(SCC(=O)Nc2ccc(N3CCOCC3)cc2)n1-c1ccccc1 | inconclusive: 22.4 µM [activator, single point] | – |
| O=C1CCC(=O)N1c1ccc(-c2nc3ccccc3s2)cc1 | active: 10 µM | – |
| Cc1cccc(NC(=O)c2oc3ccccc3c2NC(=O)c2cc(=O)c3ccccc3o2)c1 | inactive | – |
| CC(=O)N1C2(C=CC1(C)C(=O)NCc1ccccn1)CCCCC2 (stereo not given) | inactive | – |
| CC(=O)C1=C(C)NC(SCC(N)=O)=C(C#N)C1C (stereo not given) | inconclusive: 7.94 µM [activator, partial curve] | – |
| CCN(CC)S(=O)(=O)c1ccc(N=Nc2c(C)[nH]n(C(N)=S)c2=O)cc1 | inconclusive: 1.26 µM [activator, full curve] | – |
| COc1ccccc1NC(=O)CSc1nc(O)cc(=O)[nH]1 | inconclusive: 25.1 µM [activator, single point] | – |
| N/N=C(/Cc1nc2ccccc2[nH]1)c1ccc([N+](=O)[O-])cc1 | inconclusive: 12.6 µM [activator, partial curve] | – |
| COC(=O)c1cccc2c1-c1ccccc1/C2=N/O | inconclusive: 35.5 µM [activator, single point] | – |
